# Screen size: about 310,000 compounds; about 11,000 (3.5%) were called active. The inconclusive results got no clear call from the source; some entries with a clear call stand among them for comparison. Calls come from the whole dose curve; as a rule, active = well fitted inhibition curve with a large enough effect; inconclusive = small, poorly fitted or top-dose-only effect, or effect the other way; inactive = flat fitted curve, though single readings scatter. No potency is given beside an inconclusive call; the fits are too rough.
# Test: VP16 counterscreen qHTS for inhibitors of ROR gamma transcriptional activity;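 note: Gal4-VP16 expression switched on by copper sulfate through the metallothionein promoter; nearly all actives have a fitted effect of over 50% in size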
# Conditions: Drosophila S2 Gal4-VP16 UAS-luciferase, luminescence, 20 h; series mostly up to 53.6 µM
# Potency is the fitted concentration of half-maximal effect; tags give direction and shape of the fitted curve.
row,Structure (SMILES),Potency
1,Cc1ccc2c(c1)[nH]c1c(=O)n(Cc3ccco3)cnc12,inactive
2,O=C(NCc1ccncc1)C1CCCN(S(=O)(=O)Cc2ccccc2)C1 (stereo not given),inactive
3,Cc1nc(-c2ccc3c(c2)CCC(=O)N3)cs1,"inconclusive [activator, full curve, poor fit]"
4,COc1cc(NC(=S)NC(=O)c2ccc(C)cc2C)ccc1NC(=O)c1cccs1,"inconclusive [inhibitor, full curve]"
5,COc1ccc(Cl)cc1NC(=S)Nc1ccc(Cl)cn1,"inconclusive [inhibitor, partial curve]"
6,Cn1cc(/C=N/NC(=O)c2cccc([N+](=O)[O-])c2)c2ccccc21,"inconclusive [inhibitor, full curve, poor fit]"
7,O=C1NC(=S)SC1=C1CCCC1,"inconclusive [inhibitor, single point]"
8,O=C(N/N=C/c1cccs1)c1n[nH]c2c1CCC2,"inconclusive [inhibitor, single point]"
9,N=C(N)SCc1nc2ccccc2c(=O)n1-c1ccccc1,"inconclusive [activator, single point]"
10,COc1ccc(-n2cc(CNCCc3nc(C)cc(C)n3)c(-c3ccccc3Cl)n2)cc1,"inconclusive [inhibitor, single point]"
11,COc1ccc(OCc2cc(C(=O)N(C)CCC3CCOCC3)no2)c(Cl)c1,"inconclusive [activator, partial curve]"
12,O=C(NCCCN1CCCCCC1)[C@@H](c1ccccc1)C1CCCCC1,inactive
13,NC(=S)N/N=C/c1ccccc1OCCSc1ccc(Cl)cc1,active: 28.2 µM
14,O=C(Nc1c(F)cccc1F)c1ccc(-n2cncn2)nc1,inactive
15,O=C(Nc1ccccc1C(=O)N/N=C/c1ccncc1)c1ccccc1,"inconclusive [inhibitor, partial curve]"
16,CC(=O)c1cccc(NS(=O)(=O)c2ccc(N/C=C/C(=O)c3ccc(F)cc3)cc2)c1,active: 4.47 µM
17,Cc1ccc(C(=O)N2CCCC(CCC(=O)NCc3ccc(F)c(F)c3)C2)cn1 (stereo not given),"inconclusive [inhibitor, single point]"
18,COc1ccc(-c2csc(N(CCCN(C)C)C(=O)c3ccc(C(C)(C)C)cc3)n2)cc1,"inconclusive [inhibitor, partial curve, poor fit]"
19,Cc1ccc(N2C(=O)CC(Sc3ncccn3)C2=O)cc1C (stereo not given),"inconclusive [inhibitor, single point]"
20,N=c1c2c(n(Cc3ccc(Cl)cc3)c3c1CCC3)CCC2,"inconclusive [inhibitor, single point]"
21,CCC(=O)Nc1sc(Cc2ccc3c(c2)OCO3)c(C)c1C(N)=O,"inconclusive [inhibitor, single point]"
22,Cc1noc(C)c1COc1ccc(C(=O)OCC(=O)NC2CCCCC2C)cc1 (stereo not given),inactive
23,O=C(COc1ccccc1[N+](=O)[O-])N/N=C/c1cccc(OC(=O)c2ccc3c(c2)OCO3)c1,"inconclusive [inhibitor, single point]"

row,Structure (SMILES),Potency
1,Cc1cccc(OCC(=O)NNc2c3ccccc3nc3ccccc23)c1,active: 5.01 µM
2,CCN(CC)c1ccc(/C=N/NC(=O)Cc2cccs2)c(O)c1,active: 0.562 µM
3,CCOC(=O)c1cnc(SC2CC(=O)N(c3ccccc3)C2=O)nc1N (stereo not given),"inconclusive [inhibitor, single point]"
4,CCCCNS(=O)(=O)c1ccc2nc(SCC(=O)Nc3sccc3C#N)[nH]c2c1,active: 12.6 µM
5,C=C1CC[C@H](O)C/C1=C/C=C1\CCC[C@]2(C)[C@@H]([C@H](C)CC[C@@H](O)C(C)(C)O)CC[C@@H]12,"inconclusive [inhibitor, single point]"
6,O=Cc1cc([N+](=O)[O-])ccc1N1CCOCC1,inactive
7,CC1=NN(c2ccc(C)cc2)C(=O)/C1=C\C=C\c1ccccc1,"inconclusive [inhibitor, single point]"
8,Cc1ccccc1C1C(C#N)=C2N=C(N)c3c(sc4c3CCCCC4)N2C2=C1C(=O)CC(C)(C)C2 (stereo not given),"inconclusive [inhibitor, single point]"
9,CCCC[C@@H]1C[C@H]1C(NC(=O)c1cccnc1)c1ccc(Cl)cc1 (stereo not given in full),"inconclusive [inhibitor, single point]"
10,O=C(Nc1cc(S(=O)(=O)N2CCCCCC2)ccc1OCC(F)(F)F)C1CCC1,"inconclusive [inhibitor, single point]"
11,C/C(=N/Oc1nc(C)cc(C)n1)c1ccc(Cl)cc1Cl,"inconclusive [inhibitor, single point]"
12,O=C(COc1ccc(Cl)cc1Br)Nc1ccncc1,"inconclusive [inhibitor, partial curve]"
13,O=C(CCSCCC(=O)NCc1ccco1)NCc1ccco1,inactive
14,CCC(C)(C)n1nnnc1C(c1cccs1)N1CCCCC1 (stereo not given),inactive
15,COc1ccc(Cl)cc1Nc1nc(-c2sc(NC(=O)C(C)(C)C)nc2C)cs1,active: 7.08 µM
16,COc1ccc(C(=O)CCN2CCN(c3ccccc3F)CC2)cc1,"inconclusive [inhibitor, single point]"
17,Cc1ccccc1S(=O)(=O)Oc1cccc2c(O)cccc12,"inconclusive [inhibitor, partial curve, poor fit]"
18,CC(C)(C)c1ccc(SCCc2ccncc2)cc1,active: 17.8 µM
19,O=C(COc1ccc2oc(-c3ccccc3)cc(=O)c2c1)Nc1ccccc1,"inconclusive [inhibitor, partial curve]"
20,CC(C)Cc1ccc(C(C)C(=O)Nc2nccs2)cc1 (stereo not given),"inconclusive [inhibitor, single point]"
21,Cc1cc([N+](=O)[O-])nn1CC(=O)NNC(=S)Nc1ccc(F)cc1,"inconclusive [inhibitor, partial curve]"
22,Cn1c(CC(=O)Nc2ccccc2C(F)(F)F)c(Sc2ccccc2)c2ccccc21,"inconclusive [inhibitor, single point]"

# Source: PubChem BioAssay AID2546 (National Center for Advancing Translational Sciences (NCATS), 2010)
